About 100 (0.036%) of roughly 280,000 compounds were called active. This list was built around the results that the source calls inconclusive (neither active nor inactive); the mix of calls is not that of the screen. Calls come from the whole dose curve; as a rule, active = well fitted inhibition curve with a large enough effect in the signal ratio, with a control signal flat (not every such curve was filed as active); inconclusive = small, poorly fitted or top-dose-only effect, or effect the other way, or a change in a side signal; inactive = no such curve, though single readings can be large or run the other way; the % refers to the signal ratio. Where the call is inconclusive, the potency comes from a doubtful curve fit. A note “side channel” means that the fit belongs to a control or component signal, not to the main read-out.
Molecular target: Muscleblind-like protein 1 (Homo sapiens) (UniProt Q9NR56)
Assay: qHTS Assay for Inhibitors of MBNL1-poly(CUG) RNA binding
Settings: TR-FRET MBNL1-His/biotin-(CUG)12 binding, 665/545 ratio; activity change, negative = inhibition: at 57.5 µM (top of the series)
Summary of the method: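 Ratiometric TR-FRET (665 over 545 nm, excitation 340 nm) tracks disruption of MBNL1-His/biotin-(CUG)12 complex after 60 min at room temperature, with compounds at 92 nM to 58 uM final.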
% is set by controls: 0 for no effect and ±100 for the full control effect; potency is the fitted concentration of half-maximal effect; tags give direction and shape of the fitted curve or compound fluorescence and quenching.

Chain of UniProt Q9NR56 (Q9NR56 whole entry, looked up): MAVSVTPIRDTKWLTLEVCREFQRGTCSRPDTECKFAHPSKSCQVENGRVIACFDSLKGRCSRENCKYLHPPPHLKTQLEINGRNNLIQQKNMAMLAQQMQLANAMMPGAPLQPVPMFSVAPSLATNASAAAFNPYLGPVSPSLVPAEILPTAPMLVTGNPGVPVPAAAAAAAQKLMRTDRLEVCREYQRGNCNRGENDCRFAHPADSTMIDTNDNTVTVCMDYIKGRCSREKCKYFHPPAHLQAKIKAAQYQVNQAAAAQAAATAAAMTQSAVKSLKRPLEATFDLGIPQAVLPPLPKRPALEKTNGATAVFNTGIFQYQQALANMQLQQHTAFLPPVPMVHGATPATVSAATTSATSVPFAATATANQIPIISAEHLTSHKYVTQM

Row | SMILES | Potency | activity change, negative = inhibition
1 | COCCNC(=O)CSc1nnc(-c2ccc(C)cc2)c(-c2ccc(C)cc2)n1 | inconclusive: 14.1 µM [quencher, side channel, partial curve] | 
2 | CCCC(C)c1nnc(NC(=O)CCS(=O)(=O)c2ccccc2)s1 (configuration not stated) | inactive | 
3 | O=c1[nH]cnc2c1N=C(c1cccc([N+](=O)[O-])c1)CC(c1ccccc1)N2 (configuration not stated) | inconclusive: 12.6 µM [quencher, side channel, partial curve] | 
4 | COCCCn1c(SCc2nnc(-c3ccc(OC)c(OC)c3)o2)nnc1-c1ccncc1 | inconclusive: 100 µM [inhibitor, single point] | 
5 | CC(C)c1ccc(/C=C(\NC(=O)c2ccccc2)C(=O)NCCCn2ccnc2)cc1 | inactive | 
6 | CCN(CC)CCC(=O)Nc1cccc2c1C(=O)c1ccccc1C2=O | inconclusive: 1.58 µM [quencher, side channel, full curve] | 
7 | O=C(Nc1c(C(=O)N2CCOCC2)cnn1-c1ccccc1)c1ccc([N+](=O)[O-])cc1 | inconclusive: 15.8 µM [quencher, partial curve] | 
8 | O=C(Nc1ccc(OC(F)(F)F)cc1)c1[nH]ncc1[N+](=O)[O-] | inconclusive: 25.1 µM [quencher, side channel, partial curve] | 
9 | CC(C)(Cc1ccc(O)cc1)NC(=O)CC(=O)N=Nc1c(O)[nH]c2cc(Br)ccc12 | inconclusive: 15.8 µM [quencher, side channel, partial curve] | 
10 | COc1c(OC2OC(C(=O)O)C(O)C(O)C2O)cc(O)c2c(=O)cc(-c3ccccc3)oc12 (configuration not stated) | inconclusive: 17.8 µM [quencher, side channel, partial curve, poor fit] | 
11 | COc1ccc(/C=C(\NC(=O)c2ccc([N+](=O)[O-])cc2)C(=O)NCCCN2CCOCC2)cc1 | inconclusive: 14.1 µM [quencher, side channel, partial curve] | 
12 | N#C/C(=C\c1c[nH]c2ccccc12)C(=O)NCC1CCCO1 (configuration not stated) | inconclusive: 17.8 µM [quencher, side channel, partial curve] | 
13 | O=C(O)c1c2c(nc3ccccc13)/C(=C/c1cccc([N+](=O)[O-])c1)CCC2 | inconclusive: 28.2 µM [quencher, side channel, partial curve] | 
14 | COc1ccc(/C=C/C(=O)NCc2ccccn2)cc1OC | inconclusive: 39.8 µM [quencher, side channel, single point] | 
15 | O=C(O)CC12CC3CC(C1)CC(n1ncc(NCc4ccc(F)cc4Cl)c(Cl)c1=O)(C3)C2 | inconclusive: 35.5 µM [quencher, side channel, partial curve] | 
16 | CCOCCCNC(=O)CSCc1nc(-c2ccc(SC)cc2)oc1C | inactive | 
17 | COc1ccc(-n2c(SCC(N)=O)nc3sc4c(c3c2=O)CCN(C)C4)cc1 | inconclusive: 14.1 µM [quencher, side channel, partial curve] | 
18 | COc1ccc(C(=O)NC2CCN(C(=S)Nc3cc(C)ccc3C)CC2)cc1 | inconclusive: 25.1 µM [quencher, side channel, single point] | 
19 | O=C(CCCCCN1C(=O)c2cccc([N+](=O)[O-])c2C1=O)Nc1ccccc1F | inconclusive: 7.94 µM [quencher, side channel, partial curve] | 

Row | SMILES | Potency | activity change, negative = inhibition
20 | Cn1c(=O)c2c(nc(NCc3ccco3)n2CCc2ccccc2)n(C)c1=O | inactive | 
21 | CC(C)CNC(=S)N(CCCO)Cc1cc2cc3c(cc2[nH]c1=O)OCO3 | inconclusive: 35.5 µM [quencher, side channel, single point] | 
22 | O=C(Nc1ccc(S(=O)(=O)Nc2ncccn2)cc1)c1nn(Cc2ccccc2)c(=O)c2ccccc12 | inactive | 
23 | COc1ccc(OC)c(C(=O)N/N=C/c2ccccn2)c1 | inconclusive: 25.1 µM [quencher, side channel, single point] | 
24 | COc1cc(OC)c2c(c1)S(=O)(=O)C(c1ccccc1)=C2N | inconclusive: 12.6 µM [quencher, side channel, partial curve] | 
25 | COC(=O)Cn1c(C)nc([N+](=O)[O-])c1Br | inconclusive: 10 µM [quencher, side channel, partial curve] | 
26 | O=C(NCc1cccs1)c1cc(-c2ccncc2)nc2ccc(Br)cc12 | inconclusive: 14.1 µM [quencher, side channel, partial curve] | 
27 | Cc1nn(Cc2ccc(F)cc2)c(C)c1NC(=O)c1noc2c1CCc1ccccc1-2 | inconclusive: 39.8 µM [quencher, side channel, single point] | 
28 | O=C(Nc1ccc(F)cc1)C1CCN(C(=O)c2ccc([N+](=O)[O-])cc2)CC1 | inconclusive: 15.8 µM [quencher, partial curve] | 
29 | CCN(CC)S(=O)(=O)c1ccc(NC(=O)CN(c2cccc(C)c2)S(C)(=O)=O)cc1 | inconclusive: 35.5 µM [quencher, side channel, single point] | 
30 | O=c1c2ccccc2ncn1-c1ccccc1[N+](=O)[O-] | inconclusive: 20 µM [quencher, side channel, partial curve] | 
31 | O=[N+]([O-])c1ccc(N2CCN(c3ccc([N+](=O)[O-])cc3CO)CC2)c(CO)c1 | inconclusive: 3.16 µM [quencher, full curve] | 
32 | CC(C)(C)C(=O)NNC(=O)COc1ccc2ccccc2c1Br | inactive | 
33 | CCOc1ccc(CN2CCN(Cc3cnc(-c4ccccc4)s3)CC2CCO)cc1 (configuration not stated) | inactive | 
34 | CCOC(=O)/C(C#N)=C/c1c(N2CCN(CC)CC2)nc2c(C)cccn2c1=O | inconclusive: 17.8 µM [quencher, side channel, partial curve] | 
35 | Cc1cc(O)ccc1NS(=O)(=O)c1ccc2c3c(cccc13)C(=O)N2 | inconclusive: 25.1 µM [quencher, side channel, partial curve] | 
36 | CC(C)(C)c1ccc(C(=O)NNC(=O)C2CCCCC2)cc1 |  | inconclusive: -6.79% [phenotype inactive]
37 | CC(C)C(=O)N1CCN(c2c(Cl)cccc2[N+](=O)[O-])CC1 | inconclusive: 28.2 µM [quencher, single point] | 
38 | C=CCn1c(=O)/c(=C/c2ccc(F)cc2)s/c1=C(\C#N)c1nnc2n1CCCCC2 | inconclusive: 5.01 µM [quencher, side channel, partial curve] | 

Row | SMILES | Potency | activity change, negative = inhibition
39 | Cn1cc(/C=C(\NC(=O)c2ccccc2)C(=O)NCCN2CCOCC2)c2ccccc21 | inconclusive: 20 µM [quencher, side channel, partial curve] | 
40 | O=C(O)/C=C/c1cn(-c2ccccc2)nc1-c1cc2ccccc2oc1=O | inconclusive: 12.6 µM [quencher, side channel, partial curve] | 
41 | COc1ccc(Br)c(C(=O)NCCC(C)C)c1 | inconclusive: 3.16 µM [quencher, side channel, full curve] | 
42 | CCN(CC)S(=O)(=O)c1cccc(C(=O)OCC(=O)Nc2ccc3c(c2)c2ccccc2n3CC)c1 | inactive | 
43 | O=C(Cc1ccc(Cl)c(Cl)c1)NNC(=S)NCC1CCCO1 (configuration not stated) | inactive | 
44 | Cc1ccc(NCC(=O)N/N=C/c2cc3ccccc3nc2Cl)cc1 | inconclusive: 14.1 µM [quencher, side channel, partial curve] | 
45 | Oc1c(Cl)cc(Cl)cc1/C=N/c1nccs1 | inactive | 
46 | O=C(O)c1ccc(N/N=C/c2ccc(-c3cccc(Cl)c3)o2)cc1 | inconclusive: 22.4 µM [quencher, side channel, single point] | 
47 | CCOc1ccc2nc(SCc3ccc(OC)cc3)sc2c1 | inconclusive: 6.31 µM [fluorescent, side channel, single point] | 
48 | COc1ccc(NC(=O)CSc2n[nH]c(N)n2)c([N+](=O)[O-])c1 | inconclusive: 14.1 µM [quencher, partial curve] | 
49 | Cc1ccc(-c2nc(-c3ccccn3)no2)cc1[N+](=O)[O-] | inconclusive: 6.31 µM [quencher, side channel, partial curve] | 
50 | COCCCN1C(=O)C(=O)/C(=C(/O)c2ccc(OC(C)C)c(C)c2)C1c1ccncc1 (configuration not stated) | inconclusive: 22.4 µM [quencher, side channel, single point] | 
51 | COc1ccc(/C=C/C(=O)NCC(c2ccc(F)cc2)N2CCOCC2)cc1OC (configuration not stated) | inconclusive: 28.2 µM [quencher, side channel, single point] | 
52 | CC1CCCC(NC(=O)COC(=O)/C=C/c2ccc(S(=O)(=O)N3CCOCC3)cc2)C1C (configuration not stated) | inconclusive: 17.8 µM [quencher, side channel, single point] | 
53 | Cc1ccnc(NC(=O)c2ccc([N+](=O)[O-])s2)c1 | inconclusive: 2.82 µM [quencher, side channel, full curve] | 
54 | O=C(N/N=C/c1ccccc1[N+](=O)[O-])c1ccc2c(c1)OCCO2 | inconclusive: 17.8 µM [quencher, side channel, partial curve] | 
55 | COc1ccccc1CNC(=O)C1CC(c2cccc([N+](=O)[O-])c2)=NO1 (configuration not stated) | inconclusive: 17.8 µM [quencher, single point] | 
56 | NC(=O)c1nsc(C(=O)N(Cc2cccnc2)C(C(=O)NCc2ccccc2)c2ccc(O)cc2)c1N (configuration not stated) | inconclusive: 25.1 µM [quencher, side channel, partial curve] | 
57 | COc1ccc(/C=N/Nc2ccc(C(=O)O)cc2)cc1OC | inconclusive: 25.1 µM [quencher, side channel, partial curve] | 

Source: PubChem BioAssay AID2675 (National Center for Advancing Translational Sciences (NCATS), 2010)
